According to PMC12040169 (PLOS Biology, 2025):
This is one part of the list.

What follows are compounds tested on T1, C. trachomatis L2/434/Bu expressing GFP (CTL2-GFP). Settings: total inclusion area; 28.5 h, 10 µM; inhibitor.
T1 construct: L2/434/Bu GFP intracellular growth in HeLa cells
Parameters: species or system HeLa; C. trachomatis total inclusion area by high-content imaging, normalised to DMSO
Outline: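 After bulk GFP and resorufin fluorescence reads, cells were fixed, stained with Hoechst and imaged by high-content microscopy. Inclusion area and number (GFP) stood in for chlamydial growth, nuclei count (Hoechst) for host cell viability. MICs were derived as for the bulk readout.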

Structure (SMILES)	% of control remaining
COc1ccc(OCCN(C)c2cnn(-c3ccc(C(=O)O)cc3)c(=O)c2Cl)cc1 [CBK296627]	109.243
Cc1cc(C)n(CC(=O)NCC(c2cccs2)N2CCOCC2)n1 (stereo not shown) [CBK305620]	55.8872
O=C(NC1CCCCC1)[C@H]1CN2CCC1C[C@@H]2Cn1cc(CO)nn1 (stereo partly shown) [CBK289086]	115.145
O=C1Cc2cc3ccccc3cc2C2(CCN(C(=O)C3CCC3C(=O)O)CC2)N1 (stereo not shown) [CBK047252]	99.8797
O=C(O)C1=CC(c2ccccc2)=NS(=O)(=O)N1 [CBK286828]	74.8374
OC1(c2nnsc2-c2ccccc2)CCCC1 [CBK007956]	89.8361
Cc1nc2ccc(C(=O)NCCN3CCc4ccccc43)cc2[nH]1 [CBK283280]	98.4402
COc1ccccc1CNC(=O)c1ccc(=O)[nH]c1 [CBK288133]	85.343
COC(=O)c1ccc(NC(=O)CCN2C(=O)c3cccc([N+](=O)[O-])c3C2=O)cc1 [CBK263137]	70.0307
Cc1cc(C[C@@H]2COC[C@H]2NCc2ccc(C(F)(F)F)cc2)on1 [CBK285463]	95.1428
O=S(=O)(c1sccc1F)N1CCOCC1c1cccc(F)c1 (stereo not shown) [CBK304730]	32.481
CC(=O)C12CCCCC1CC1C3CC(C)C4(O)CC(O)CCC4(C)C3CCC12C (stereo not shown) [CBK261479]	91.4707
CC(=O)N1N=C(COc2ccc3c(c2)OCO3)OC1c1ccc(C)cc1 (stereo not shown) [CBK294397]	94.2384
CC1CN(Cc2nc3c(c(=O)[nH]c(=O)n3C)n2Cc2cccc(Cl)c2)CC(C)O1 (stereo not shown) [CBK269450]	68.5597
c1csc(CN2CCNCC2)c1 [CBK027324]	108.888
Cc1ccc(OCc2ccccc2)c(Br)c1 [CBK002833]	119.933
CS(=O)(=O)N1CCc2cc(C(=O)Cn3nc(C(=O)O)c4ccccc4c3=O)ccc21 [CBK297000]	102.039
N#CC(c1ccc(Br)cc1)n1ccnc1 (stereo not shown) [CBK009985]	95.4995
Cc1c(F)cccc1CN(CC(C)(C)CN)C(=O)Nc1ccc2c(c1)OCO2 [CBK002486C]	38.5637
CCn1c(=N)c(C(=O)NCCOC)cc2c(=O)n3ccccc3nc21 [CBK287605]	93.7554
O=C(CC1CCN(Cc2ccccn2)CC1)Nc1ccc(OC2CCCC2)cc1 [CBK285960]	46.4541
O=C(Nc1ccc([C@@H](O)[C@H]2COCC(=O)N2Cc2ccccc2F)cc1)c1cnccn1 [CBK289060]	129.256
C=CCn1c(SC(C)C(=O)O)nnc1-c1ccc(OC)cc1 (stereo not shown) [CBK268958]	90.5776
CN(C)CCN(CC#Cc1ccccc1)CC#Cc1ccccc1 [CBK265035C]	104.13
CC(C)CN1C(=O)COC[C@@H]1[C@H](O)c1ccc(NC(=O)c2cccnc2)cc1 [CBK289692]	105.725
O=C(Nc1ccc(I)cc1C(=O)Nc1cccnc1)c1ccccc1Cl [CBK266154]	100.263
COc1ccccc1NC(=O)N(CC(C)C)CC(C)C [CBK005456]	59.4374

Structure (SMILES)	% of control remaining
COc1cccc(CC(=O)N2CCC(Cc3ccc(-c4ccccc4)cc3)(C(N)=O)CC2)c1 [CBK285776]	89.0051
CN1C(=O)C2(CC(=O)N(CC3CCCCC3)C2=O)c2cc(F)ccc21 (stereo not shown) [CBK075257]	102.399
CCOc1cc(NC2CCN(C(=O)CC3(O)CCCCC3)CC2)ncn1 [CBK304141]	26.4253
C=CCNC(=O)C1CC2CCC1(C)C[C@@]21NC(=O)c2ccccc2N1 (stereo partly shown) [CBK284442]	84.4393
Cc1ccc(C(=O)NCCN2CCOCC2)c(N2CCOCC2)n1 [CBK106201]	75.9542
NS(=O)(=O)c1ccc(NC(=S)NNC(=O)C2c3ccccc3Oc3ccccc32)cc1 [CBK267024]	102.481
CSc1nc(N)cc(N2CCN(C(=O)OC(C)(C)C)CC2)n1 [CBK003458]	87.3973
CC(C)n1cc(C(=O)N2CCC(c3cc4ncccc4[nH]3)CC2)cn1 [CBK283392]	72.6156
Cc1cc(C(=O)NC2(C#N)CCSCC2)n(C)n1 [CBK306386]	75.1857
Cc1cc(Cl)cc(Cl)c1S(=O)(=O)Nc1nc(-c2cccc([N+](=O)[O-])c2)cs1 [CBK000902]	101.094
CN(C)CCC1OC(=O)N(c2ccccc2)C1=O (stereo not shown) [CBK010134C]	96.9957
COc1cc2c(cc1OC)CN(C(=O)Cc1ccccc1)CC2 [CBK122751]	89.5559
CCCn1cc(NC(=O)NC(C)(CC)CO)ccc1=O (stereo not shown) [CBK304864]	34.7948
CC(=O)NCC1CCC(C(NC(=O)C2CC2)c2ccccn2)CC1 (stereo not shown) [CBK283000]	93.9262
Fc1ccc(COc2ccc3ccccc3c2CNc2nn[nH]n2)cc1 [CBK268211]	95.2876
COc1ccc(-c2cc3ccc(OC(C)C(=O)O)cc3oc2=O)cc1 (stereo not shown) [CBK267947]	86.855
CC(=O)Nc1ccc(NC(=O)c2cnc(-c3cccc(C)c3)c(-c3ccncc3)c2)cc1C(F)(F)F [CBK036660]	32.7191
Cc1nc[nH]c1CN(Cc1cccc(F)c1)CC1CCCO1 (stereo not shown) [CBK282525]	135.218
O=c1[nH]c(=O)c2cc(S(=O)(=O)NC(c3ccccc3)c3ccccc3)ccc2[nH]1 [CBK286375]	58.4878
COc1cc(/C=C2/S/C(=N\c3ccccc3)NC2=O)ccc1OCc1ccccc1[N+](=O)[O-] [CBK262165]	95.6626
O=C(NC1CCCC1)c1ccc(Cl)cc1Cl [CBK002108]	66.619
CC(=O)Nc1cccc(Oc2nccnc2-c2ccc(C)cc2C)c1 [CBK106986]	21.9492
Oc1ccc(C2N=C(c3ccccc3)N=C(c3ccccc3)N2)cc1 (stereo not shown) [CBK018755]	100.601
O=C(Cn1cccn1)NC(Cc1cccs1)c1nccs1 (stereo not shown) [CBK285136]	103.425
Clc1ccc(-c2cc(NC3CCCCC3)ncn2)cc1 [CBK090902]	130.205
Cc1c(C(=O)N2CCCCC2CN2CCOCC2)[nH]c2c(F)cccc12 (stereo not shown) [CBK306751]	89.8426
O=C(NCC1CCCO1)c1ccc(NC(=O)C2CC=CCC2C(=O)O)cc1 (stereo not shown) [CBK266335]	135.38

Structure (SMILES)	% of control remaining
O=C(O)C(Cc1ccccc1)N1C(=O)/C(=C/C(Cl)=C/c2ccc([N+](=O)[O-])cc2)SC1=S (stereo not shown) [CBK263523]	99.4282
c1csc(CCN2CCC3(C2)NCCc2c3[nH]c3ccccc23)c1 (stereo not shown) [CBK040196]	87.746
O=C1COc2ccccc2CCCC[C@@H]2CNCC[C@H]2N1 [CBK292038]	76.2645
NS(=O)(=O)c1ccc(CCNC(=O)c2ccc([N+](=O)[O-])cc2)cc1 [CBK263773]	101.568
Cc1ccc2nc(NC(=O)C3COc4ccccc4O3)sc2c1 (stereo not shown) [CBK287366]	105.562
O=[N+]([O-])c1ccc(Oc2ccccc2)nc1 [CBK002726]	103.547
COc1ccc(N(C(C)C(=O)NN=C2CCN(C)CC2)S(C)(=O)=O)cc1 (stereo not shown) [CBK262390]	110.572
CCCCNC(=O)c1ccc2nc(C)c(N(C)CC3CCCCC3)n2c1 [CBK145913]	75.2813
COc1ccc2c(c1)C(O)CC1(CCN(CC(O)c3ccc(-c4ccccc4)cc3)CC1)O2 (stereo not shown) [CBK286398]	93.9106
Cc1ccccc1-n1ncc2c(N3CCCC3)ncnc21 [CBK287648]	103.314
CN(C)CC(C)(C)CNC(=O)c1cc(-c2ccc(C(=O)N3CCOCC3)cc2)cnc1N [CBK158574]	103.186
N#CCCCN1CCN(c2nccnc2OCc2cccnc2)CC1 [CBK083144]	71.7962
Nc1c(-c2ccc3c(c2)CCO3)cnc2ncccc12 [CBK083678]	83.692
CC(C)(C)c1nnc([C@H]2CCN(C(=O)CCC(=O)O)C2)o1 [CBK289406]	99.0064
COCOc1ccc(-c2nc(-c3cccc(NS(C)(=O)=O)c3)cnc2N)cc1 [CBK063985]	97.4839
c1ccc(CCN2CCC(Oc3nccnc3OCCN3CCOCC3)CC2)nc1 [CBK082944]	91.1401
Cc1c(NS(=O)(=O)c2cc(C(=O)O)c(Cl)cc2Cl)c(=O)n(-c2ccccc2)n1C [CBK296123]	89.5117
CN1CC[C@@]2(c3cc(F)cc(F)c3)CCC(=O)CC12 (stereo partly shown) [CBK002500]	58.2196
C=CCOc1cccn2c(N(C=O)Cc3ccccc3)c(CC)nc12 [CBK147827]	83.2151
O=C1CCC(=O)N1CCOc1nccnc1N1CCN(Cc2ccccc2F)CC1 [CBK084289]	91.4239
CC(C)(C)c1cc(/C=N/Nc2nc3ccccc3[nH]2)cc(C(C)(C)C)c1O [CBK262247]	27.2194
Cc1ccc(NC(=O)c2ccc3c(c2)C(=O)N(c2cccc(N4C(=O)c5ccc(C(=O)Nc6ccc(C)cc6)cc5C4=O)n2)C3=O)cc1 [CBK261198]	93.357
CN1CCC(=NNC(=O)c2ccc(CN(c3ccccc3)S(C)(=O)=O)cc2)CC1 [CBK262728]	85.2392
CCn1ncc(CN2CCCC(c3cc4cccnc4[nH]3)C2)c1C (stereo not shown) [CBK284700]	101.365
Cc1cccc(C2CCCN(C(=O)Nc3cnn(C)c3)C2)c1 (stereo not shown) [CBK306961]	85.5695
